According to patent US20150037339A1 (Regeneron, published 2015):

T1: Activin A (homodimer of two inhibin βA subunits; R&D Systems, #338-AC) (human, UniProt P08476 311-426)
T1 construct: Bought protein; also called inhibin-βA dimer
T1 sequence: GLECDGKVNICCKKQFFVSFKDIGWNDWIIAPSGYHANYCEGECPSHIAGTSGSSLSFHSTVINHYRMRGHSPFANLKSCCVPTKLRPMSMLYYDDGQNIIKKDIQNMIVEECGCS

T2: BMP9 (human, UniProt Q9UK05 320-429)
T2 sequence (looked up): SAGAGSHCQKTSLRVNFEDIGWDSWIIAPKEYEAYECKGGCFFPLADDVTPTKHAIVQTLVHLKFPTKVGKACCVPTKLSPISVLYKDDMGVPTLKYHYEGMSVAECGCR

T3: BMP10 (human, UniProt O95393 317-424)
T3 sequence (looked up): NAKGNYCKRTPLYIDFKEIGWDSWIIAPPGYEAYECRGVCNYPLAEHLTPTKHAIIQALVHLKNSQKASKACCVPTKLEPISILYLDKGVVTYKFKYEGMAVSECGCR

B1: Control 4 (Activin Type IIB receptor-Fc fusion molecule; soluble Activin RIIB receptor extracellular domain E23-P133 of NP-001097, Gly-Ser linker, C-terminal … (Fc fusion)
chain: EAETRECIYYNANWELERTNQSGLERCEGEQDKRLHCYASWANSSGTIELVKKGCWLDDFNCYDRQECVATEENPQVYFCCCEGNFCNERFTHLPEAGGPEVTYEPPPTAPSG[omitted - human IgG1 Fc]
notes: also called hActRIIB-hFc; ActRIIB-hFc
B2: human ActRIIA expressed with a C-terminal human Fc tag (hActRIIA-Fc; R&D Systems, #340-R[…]) (Fc fusion)
chain: not shown
notes: Bought; also called hActRIIA-hFc; not shown: C-terminal human Fc tag

Experiments:
[1] = biological target: T1, Activin A (homodimer of two inhibin βA …); assay: SPR blocking: 5 nM Activin A + 0.94 nM binder over hActRIIB-hFc (Control 4) surface
[2] = biological target: T1, Activin A (homodimer of two inhibin βA …); assay: SPR blocking: 5 nM Activin A + 7.5 nM binder over Follistatin-288 surface
Experimental: (§1) The binding signal (RU) was measured at 150 seconds after the start of the injection, and this signal was subtracted by the measured RU value for a negative control reference surface to determine the specific binding signal.

[3] = biological target: T1, Activin A (homodimer of two inhibin βA …); assay: SPR blocking: 5 nM Activin A + 1.88 nM binder over Follistatin-288 surface
Experimental: as §1

[4] = biological target: T1, Activin A (homodimer of two inhibin βA …); assay: SPR blocking: 5 nM Activin A + 0.94 nM binder over Follistatin-288 surface
Experimental: as §1

[5] = biological target: T1, Activin A (homodimer of two inhibin βA …); assay: SPR blocking: 5 nM Activin A + 3.75 nM binder over hActRIIB-hFc (Control 4) surface
Experimental: as §1

[6] = biological target: T1, Activin A (homodimer of two inhibin βA …); assay: SPR blocking: 5 nM Activin A + 0.00 nM binder over hActRIIB-hFc (Control 4) surface
Experimental: as §1

[7] = biological target: T1, Activin A (homodimer of two inhibin βA …); assay: SPR blocking: 5 nM Activin A + 15 nM binder over hActRIIB-hFc (Control 4) surface
[8] = biological target: T1, Activin A (homodimer of two inhibin βA …); assay: SPR blocking: 5 nM Activin A + 7.50 nM binder over hActRIIA-hFc surface
Experimental: as §1

[9] = biological target: T1, Activin A (homodimer of two inhibin βA …); assay: SPR blocking: 5 nM Activin A + 30 nM binder over hActRIIB-hFc (Control 4) surface
Experimental: as §1

[10] = biological target: T1, Activin A (homodimer of two inhibin βA …); assay: SPR blocking: 5 nM Activin A + 15 nM binder over Follistatin-288 surface
Experimental: as §1

BMP9 = biological target: T2, BMP9; assay: cell-based or functional assay
BMP10 = biological target: T3, BMP10; assay: cell-based or functional assay
[11] = biological target: T1, Activin A (homodimer of two inhibin βA …); assay: SPR blocking: 5 nM Activin A + 30 nM binder over Follistatin-288 surface
Experimental: as §1

[12] = biological target: T1, Activin A (homodimer of two inhibin βA …); assay: SPR blocking: 5 nM Activin A + 60 nM binder over hActRIIB-hFc (Control 4) surface
Experimental: as §1

[13] = biological target: T1, Activin A (homodimer of two inhibin βA …); assay: SPR blocking: 5 nM Activin A + 0 nM binder over Follistatin-288 surface
Experimental: as §1

[14] = biological target: T1, Activin A (homodimer of two inhibin βA …); assay: SPR blocking: 5 nM Activin A + 3.75 nM binder over hActRIIA-hFc surface
Experimental: as §1

[15] = biological target: T1, Activin A (homodimer of two inhibin βA …); assay: SPR blocking: 5 nM Activin A + 0.00 nM binder over hActRIIA-hFc surface
Experimental: as §1

[16] = biological target: T1, Activin A (homodimer of two inhibin βA …); assay: SPR blocking: 5 nM Activin A + 1.88 nM binder over hActRIIA-hFc surface
Experimental: as §1

[17] = biological target: T1, Activin A (homodimer of two inhibin βA …); assay: SPR blocking: 5 nM Activin A + 1.88 nM binder over hActRIIB-hFc (Control 4) surface
Experimental: as §1

[18] = biological target: T1, Activin A (homodimer of two inhibin βA …); assay: SPR blocking: 5 nM Activin A + 30 nM binder over hActRIIA-hFc surface
Experimental: as §1

[19] = biological target: T1, Activin A (homodimer of two inhibin βA …); assay: SPR blocking: 5 nM Activin A + 15 nM binder over hActRIIA-hFc surface
Experimental: as §1

[20] = biological target: T1, Activin A (homodimer of two inhibin βA …); assay: SPR blocking: 5 nM Activin A + 0.94 nM binder over hActRIIA-hFc surface
Experimental: as §1

[21] = biological target: T1, Activin A (homodimer of two inhibin βA …); assay: SPR blocking: 5 nM Activin A + 60 nM binder over Follistatin-288 surface
Experimental: as §1

[22] = biological target: T1, Activin A (homodimer of two inhibin βA …); assay: SPR blocking: 5 nM Activin A + 60 nM binder over hActRIIA-hFc surface
Experimental: as §1

[23] = biological target: T1, Activin A (homodimer of two inhibin βA …); assay: SPR blocking: 5 nM Activin A + 3.75 nM binder over Follistatin-288 surface
Experimental: as §1

[24] = biological target: T1, Activin A (homodimer of two inhibin βA …); assay: SPR blocking: 5 nM Activin A + 7.50 nM binder over hActRIIB-hFc (Control 4) surface

Binder	% bound RU w/no inhibitor [1]	% bound RU w/no inhibitor [2]	% bound RU w/no inhibitor [3]	% bound RU w/no inhibitor [4]	% bound RU w/no inhibitor [5]	% bound RU w/no inhibitor [6]	% bound RU w/no inhibitor [7]	% bound RU w/no inhibitor [8]	% bound RU w/no inhibitor [9]	% bound RU w/no inhibitor [10]	% bound RU w/no inhibitor [11]	% bound RU w/no inhibitor [12]	% bound RU w/no inhibitor [13]	% bound RU w/no inhibitor [14]	% bound RU w/no inhibitor [15]	% bound RU w/no inhibitor [16]	% bound RU w/no inhibitor [17]	% bound RU w/no inhibitor [18]	% bound RU w/no inhibitor [19]	% bound RU w/no inhibitor [20]	also measured
B1	149%	120%	163%	169%	144%	100%	51%	160%	3%	43%	1%	2%	100%	231%	100%	266%	148%	2%	51%	276%	IC50 [M]; inhibition of 800 pM BMP9 in W-20-17/BRE-luc cells (BMP9): 2e-09 M; IC50 [M]; inhibition of 4 nM BMP10 in W-20-17/BRE-luc cells (BMP10): 1e-09 M; % bound RU w/no inhibitor [21]: 1%; % bound RU w/no inhibitor [22]: 1%; % bound RU w/no inhibitor [23]: 151%; % bound RU w/no inhibitor [24]: 130%
B2	131%	116%	148%	156%	127%	100%	56%	128%	5%	60%	11%	5%	100%	188%	100%	222%	129%	5%	50%	236%	% bound RU w/no inhibitor [21]: 13%; % bound RU w/no inhibitor [22]: 3%; % bound RU w/no inhibitor [23]: 138%; % bound RU w/no inhibitor [24]: 113%
